Reference: publication PMC4336329 (PLoS ONE, 2015)
Out of some 310,000 compounds screened, about 14,000 (4.5%) showed an effect of 50% or more. Effects have a minus sign here. The list shows a part of the results.

Biological target: human ether-à-go-go-related gene (hERG) potassium channel (human, UniProt Q12809)
Assay: primary screen, population patch clamp on CHO cells stably expressing hERG
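Note: peak tail current of the secondary pulse compared with the same well before compound.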

Sequence of human ether-à-go-go-related gene (hERG) potassium channel (Q12809 whole entry, looked up): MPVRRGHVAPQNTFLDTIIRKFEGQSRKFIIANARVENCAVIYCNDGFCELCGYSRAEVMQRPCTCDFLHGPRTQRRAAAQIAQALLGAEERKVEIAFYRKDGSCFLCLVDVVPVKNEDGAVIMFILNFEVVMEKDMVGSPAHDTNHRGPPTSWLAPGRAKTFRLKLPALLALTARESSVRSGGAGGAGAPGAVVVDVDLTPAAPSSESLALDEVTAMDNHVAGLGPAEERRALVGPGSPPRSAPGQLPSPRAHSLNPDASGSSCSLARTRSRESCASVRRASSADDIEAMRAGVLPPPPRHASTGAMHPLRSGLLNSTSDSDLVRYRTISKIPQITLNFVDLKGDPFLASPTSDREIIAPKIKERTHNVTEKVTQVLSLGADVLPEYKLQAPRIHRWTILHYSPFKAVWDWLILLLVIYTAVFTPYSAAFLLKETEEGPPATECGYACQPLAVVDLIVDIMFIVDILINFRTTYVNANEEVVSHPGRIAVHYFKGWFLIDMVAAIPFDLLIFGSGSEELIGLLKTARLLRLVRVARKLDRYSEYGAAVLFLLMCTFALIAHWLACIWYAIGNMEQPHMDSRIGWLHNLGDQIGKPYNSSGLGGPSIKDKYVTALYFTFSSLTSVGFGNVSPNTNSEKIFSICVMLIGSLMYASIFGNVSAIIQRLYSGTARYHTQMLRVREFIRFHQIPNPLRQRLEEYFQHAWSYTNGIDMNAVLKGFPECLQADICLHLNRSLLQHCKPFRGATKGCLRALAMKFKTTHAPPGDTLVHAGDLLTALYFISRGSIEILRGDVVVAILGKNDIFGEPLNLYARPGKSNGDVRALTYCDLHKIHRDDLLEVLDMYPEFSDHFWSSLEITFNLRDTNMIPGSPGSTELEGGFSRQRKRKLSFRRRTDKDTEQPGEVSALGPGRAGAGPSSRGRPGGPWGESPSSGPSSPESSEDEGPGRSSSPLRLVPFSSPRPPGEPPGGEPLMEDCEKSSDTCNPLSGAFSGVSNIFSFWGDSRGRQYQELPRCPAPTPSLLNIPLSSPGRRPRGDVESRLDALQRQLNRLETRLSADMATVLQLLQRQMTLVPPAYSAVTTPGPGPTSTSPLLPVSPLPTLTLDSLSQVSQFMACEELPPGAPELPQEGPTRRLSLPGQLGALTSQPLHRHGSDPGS

Row | Compound | hERG current change (%, negative = inhibition) at 10uM [%]
1 | COc1ccc(CSc2nnc(C)n2N)cc1[N+](=O)[O-] | 15.6
2 | Cc1cc(N2CCN(C(=O)c3ccco3)CC2)c2ccccc2n1 | -71.8
3 | COc1cc(C(=O)Nc2nnc(C(C)(C)C)s2)c([N+](=O)[O-])cc1OC | 6.64
4 | CCOC(=O)CC1(NC(=O)C2CCC(=O)N(CCc3ccccc3)C2)CCCCC1 (stereo not drawn) | 19.5
5 | CN(Cc1ccccc1)C(=O)C1CCCN(c2ncnc3c2nc2n3CCCCC2)C1 (stereo not drawn) | -66
6 | C/C(=N/NC(=O)CN1CCN(Cc2ccccc2)CC1)c1ccc([N+](=O)[O-])cc1 | -76.5
7 | O=c1sc2ccccc2c(=O)n1Cc1ccccc1F | 16.7
8 | CC(C)OCCCNC(=O)c1ccccc1Oc1ccccc1 | 0.195
9 | O=c1oc2ccc([N+](=O)[O-])cc2c(N2CCOCC2)c1[N+](=O)[O-] | 20.7
10 | Cc1nn(CC(=O)N2CCc3ccccc3C2)c(C)c1[N+](=O)[O-] | 24
11 | Cc1ccc(C)c(C(=O)CCC(=O)Nc2ccc(F)cc2)c1 | 14.8
12 | CCC(C)n1c(O)c(C=NCCN2CCOCC2)c(=O)[nH]c1=S (stereo not drawn) | 13.5
13 | Cc1ccc(OCc2cc(C(=O)N3CCN(c4ccccc4)CC3)no2)cc1C | -0.317
14 | Cc1ccc(/C=N/NC(=O)c2nnn(-c3nonc3N)c2CSc2ccccc2)s1 | 20.7
15 | O=C(CSc1nnnn1-c1ccc(Cl)c(C(=O)O)c1)NC(c1ccccc1)c1ccccc1 | 19.8
16 | CC1CCCC(NC(=O)C2CCC(CNc3c(N4CCCC4)c(=O)c3=O)CC2)C1C (stereo not drawn) | 1.97
17 | O=C(O)CNC(=O)/C(=C\c1cccc([N+](=O)[O-])c1)NC(=O)c1ccco1 | 15.7
18 | CC1CCCC(C)N1CCCNC(=O)c1cc2c(s1)-c1ccccc1OC2 (stereo not drawn) | -69.9
19 | COc1cc(/C=N/N(C)c2ccccc2)ccc1O | 16.9
20 | COC(=O)C1=C(C)N(c2ccccc2)/C(=C/c2ccco2)C1=O | 27.8
21 | Cc1ccccc1NC(=O)c1cc(-c2ccccc2)n(CCCN2CCOCC2)c1C | -32.3
22 | CC(=O)N/C(=C\c1ccccc1)C(=O)OC(C)C(=O)N(C)c1ccccc1 (stereo not drawn) | -2.47
23 | CCOc1cccc2cc(C(=O)Nc3nccs3)c(=O)oc12 | 9.58

Row | Compound | hERG current change (%, negative = inhibition) at 10uM [%]
24 | Nc1nc(-c2cccs2)c(-c2cccs2)s1 | 4.19
25 | Cc1ccc(OCCn2cc(/C(N)=N/O)c3ccccc32)cc1C | -7.06
26 | N#CCCN(C(=O)COc1ccc(Br)cc1F)c1ccc(F)cc1 | -25
27 | O=C1NC(=O)C(=C/C=C/c2coc3ccc(Br)cc3c2=O)C(=O)N1 | 2.76
28 | COc1cc(OC)cc(C(=O)NNC(=S)NC2CC2)c1 | 23.9
29 | COCCNC(=O)Cn1nc(C)c([N+](=O)[O-])c1C | -7.7
30 | CCCOc1ccc(-c2nn(-c3ccccc3)cc2/C=C2\SC(=S)N(C3CCS(=O)(=O)C3)C2=O)cc1 (stereo not drawn) | 12
31 | CCOc1cc(C(=O)Nc2ncn[nH]2)cc(OCC)c1OCC | -2.12
32 | Cc1ccc(NC2=NC3(CCCC3)N=C(N)N2)c(C)c1 | 48.9
33 | CCOc1ccccc1NC(=S)N1CCN(c2ccc(O)cc2)CC1 | 8.51
34 | COc1ccc(C(C)=O)cc1Cn1c(=O)cc(C)[nH]c1=O | 13.2
35 | COc1ccccc1N1C(=NC(=O)C(C)Oc2ccccc2)SC2CS(=O)(=O)CC21 (stereo not drawn) | -14.2
36 | O=C(COC(=O)c1ccc2c(c1)OCO2)Nc1ncc(Cl)cc1Cl | -8.15
37 | Fc1ccc(CN2CCN(c3ccc(Cl)cc3)CC2)cc1 | -13.6
38 | c1coc(CSCc2cn3cccnc3n2)c1 | 6.5
39 | NC(=O)c1ccc(N2CCN(S(=O)(=O)c3ccccc3)CC2)c([N+](=O)[O-])c1 | -58.7
40 | CCOCC(=O)Nc1cc(-c2cn3cccnc3n2)ccc1C | 6.69
41 | COC(=O)c1ccc(C(=O)Nc2ccc3c(c2)C(=O)NC3=O)cc1 | 11.9
42 | COc1ccc(OCC(=O)Nc2ccccc2C(=O)NC2CC2)cc1 | -13.4
43 | COC(=O)c1c(NC(=O)C2CC2)sc2c1CCN(C(C)=O)C2 | -25.7
44 | O=C(O)C(=O)O.O=S(=O)(c1ccc2ccccc2c1)N1CCN(C2Cc3ccccc3C2)CC1 | -21.1
45 | CCOC(=O)CSc1nnc(NC(=O)C2CC(=O)N(c3ccc(F)cc3)C2)s1 (stereo not drawn) | 5.4
